Experimental data from article PMC13434183.
No constants are given. Whether binding was seen depends on the method and setting. In cells and extracts the contact can be indirect. Some entries that bind do so weakly or less than the wild type.

T1: RIPK3^D143N (mouse, full-length) (mouse) (UniProt Q9QZL0)
T1 sequence: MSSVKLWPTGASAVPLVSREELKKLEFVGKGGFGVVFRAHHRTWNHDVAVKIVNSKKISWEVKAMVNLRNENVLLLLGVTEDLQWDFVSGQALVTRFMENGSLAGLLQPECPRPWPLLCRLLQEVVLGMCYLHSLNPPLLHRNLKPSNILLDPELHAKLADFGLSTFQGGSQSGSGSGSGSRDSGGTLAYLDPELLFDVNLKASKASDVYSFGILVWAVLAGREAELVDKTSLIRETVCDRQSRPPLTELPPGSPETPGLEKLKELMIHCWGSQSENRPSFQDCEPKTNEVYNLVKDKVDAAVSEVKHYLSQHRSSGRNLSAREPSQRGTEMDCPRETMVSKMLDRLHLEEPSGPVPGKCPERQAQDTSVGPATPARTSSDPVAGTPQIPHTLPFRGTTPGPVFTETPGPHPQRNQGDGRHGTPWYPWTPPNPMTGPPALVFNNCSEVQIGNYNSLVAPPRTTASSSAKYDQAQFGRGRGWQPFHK

T2: RIPK3^D161N (mouse, full-length) (mouse) (UniProt Q9QZL0)
T2 sequence: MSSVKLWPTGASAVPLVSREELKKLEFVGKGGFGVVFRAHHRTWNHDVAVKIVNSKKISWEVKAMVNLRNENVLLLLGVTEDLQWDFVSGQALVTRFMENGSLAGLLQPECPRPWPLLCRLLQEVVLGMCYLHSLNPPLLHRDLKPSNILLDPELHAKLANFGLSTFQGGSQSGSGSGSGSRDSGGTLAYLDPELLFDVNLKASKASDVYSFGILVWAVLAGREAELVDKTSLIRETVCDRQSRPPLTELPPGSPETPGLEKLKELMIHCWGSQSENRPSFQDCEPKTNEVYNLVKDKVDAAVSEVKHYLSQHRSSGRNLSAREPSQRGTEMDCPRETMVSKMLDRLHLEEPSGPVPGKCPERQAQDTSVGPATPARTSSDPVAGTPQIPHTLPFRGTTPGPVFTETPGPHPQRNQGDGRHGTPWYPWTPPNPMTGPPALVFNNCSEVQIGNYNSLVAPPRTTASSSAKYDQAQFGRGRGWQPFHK

T3: RIPK3^K51A (mouse, full-length) (mouse) (UniProt Q9QZL0)
T3 sequence: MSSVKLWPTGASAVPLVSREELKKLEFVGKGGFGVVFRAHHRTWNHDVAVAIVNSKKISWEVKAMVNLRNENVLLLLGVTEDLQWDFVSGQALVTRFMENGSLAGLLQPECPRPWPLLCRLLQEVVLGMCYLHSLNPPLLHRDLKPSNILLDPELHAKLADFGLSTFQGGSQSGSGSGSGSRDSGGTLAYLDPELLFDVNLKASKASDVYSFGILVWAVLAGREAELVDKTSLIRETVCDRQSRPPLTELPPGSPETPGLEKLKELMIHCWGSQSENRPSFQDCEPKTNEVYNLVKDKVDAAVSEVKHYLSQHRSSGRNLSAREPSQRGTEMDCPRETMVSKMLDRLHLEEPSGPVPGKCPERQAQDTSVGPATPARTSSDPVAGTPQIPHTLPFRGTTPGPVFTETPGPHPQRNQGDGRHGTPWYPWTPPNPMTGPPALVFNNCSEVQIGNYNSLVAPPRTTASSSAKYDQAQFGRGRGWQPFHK


Assays:
Assay in all cases: co-IP; FLAG-IP (anti-Flag magnetic beads, 90 min, 4 °C, after pre-clearing with anti-HA beads) of reconstituted RIPK3 from lysates of Ripk3-/- mouse dermal fibroblasts; 5 µM IDN-6556 ± 10 ng/mL doxycycline overnight, then TNF/Smac mimetic/IDN-6556 (TSI); lysis buffer 50 mM Tris-HCl pH 7.4, 1% Triton X-100, 150 mM NaCl; immunoblot
[1] = biological target: wild-type RIPK3 (mouse, full-length) (mouse), Q9QZL0; conditions: remark: other sources report otherwise
[2] = biological target: T1, RIPK3^D143N (mouse, full-length) (mouse)
[3] = biological target: T2, RIPK3^D161N (mouse, full-length) (mouse)
[4] = biological target: T3, RIPK3^K51A (mouse, full-length) (mouse)
[5] = biological target: wild-type RIPK3 (mouse, full-length) (mouse) (UniProt Q9QZL0)

binding [1] | binding [2] | binding [3] | binding [4] | binding [5] | Binder
binds |  |  |  |  | RIPK1, Q60855 1-656 (protein) MQPDMSLDNIKMASSDLLEKTDLDSGGFGKVSLCYHRSHGFVILKKVYTGPNRAEYNEVLLEEGKMMHRLRHSRVVKLLGIIIEEGNYSLVMEYMEKGNLMHVLKTQIDVPLSLKGRIIVEAIEGMCYLHDKGVIHKDLKPENILVDRDFHIKIADLGVASFKTWSKLTKEKDNKQKEVSSTTKKNNGGTLYYMAPEHLNDINAKPTEKSDVYSFGIVLWAIFAKKEPYENVICTEQFVICIKSGNRPNVEEILEYCPREIISLMERCWQAIPEDRPTFLGIEEEFRPFYLSHFEEYVEEDVASLKKEYPDQSPVLQRMFSLQHDCVPLPPSRSNSEQPGSLHSSQGLQMGPVEESWFSSSPEYPQDENDRSVQAKLQEEASYHAFGIFAEKQTKPQPRQNEAYNREEERKRRVSHDPFAQQRARENIKSAGARGHSDPSTTSRGIAVQQLSWPATQTVWNNGLYNQHGFGTTGTGVWYPPNLSQMYSTYKTPVPETNIPGSTPTMPYFSGPVADDLIKYTIFNSSGIQIGNHNYMDVGLNSQPPNNTCKEESTSRHQAIFDNTTSLTDEHLNPIRENLGRQWKNCARKLGFTESQIDEIDHDYERDGLKEKVYQMLQKWLMREGTKGATVGKLAQALHQCCRIDLLNHLIRASQS
 | binds | no binding | no binding | binds | Caspase-8 (protein, UniProt O89110 1-480) MDFQSCLYAIAEELGSEDLAALKFLCLDYIPHKKQETIEDAQKLFLRLREKGMLEEGNLSFLKELLFHISRWDLLVNFLDCNREEMVRELRDPDNAQISPYRVMLFKLSEEVSELELRSFKFLLNNEIPKCKLEDDLSLLEIFVEMEKRTMLAENNLETLKSICDQVNKSLLGKIEDYERSSTERRMSLEGREELPPSVLDEMSLKMAELCDSPREQDSESRTSDKVYQMKNKPRGYCLIINNHDFSKAREDITQLRKMKDRKGTDCDKEALSKTFKELHFEIVSYDDCTANEIHEILEGYQSADHKNKDCFICCILSHGDKGVVYGTDGKEASIYDLTSYFTGSKCPSLSGKPKIFFIQACQGSNFQKGVPDEAGFEQQNHTLEVDSSSHKNYIPDEADFLLGMATVKNCVSYRDPVNGTWYIQSLCQSLRERCPQGDDILSILTGVNYDVSNKDDRRNKGKQMPQPTFTLRKKLFFPP
